# Test results: PubChem BioAssay AID686979 (National Center for Advancing Translational Sciences (NCATS), 2013)
# “And” between values parts separate entries of the source, which are not always exact repeats. Identical values can stand only once. Out of some 420,000 compounds screened, about 50,000 (12%) were called active. Inconclusive results, whose numbers are uncertain, are shown with a selection of clear calls. Calls follow the shape of the dose curve; as a rule, active = well fitted inhibition curve with a large enough effect; inconclusive = small, poorly fitted or top-dose-only effect; inactive = flat fitted curve, though single readings scatter. Potencies of inconclusive entries are doubtful fits and often do not repeat.
# Experiment: qHTS for Inhibitors of human tyrosyl-DNA phosphodiesterase 1 (TDP1): qHTS in cells in presence of CPT; also: nearly all actives have a fitted effect of over 55% in size
# Conditions: chicken DT40 Tdp1-/-;hTDP1 cells + 20 nM CPT, ATP luminescence, 48 h; activity change, negative = growth inhibition: at 46.2 µM (top of the series)
# Procedure, shortened: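 Chicken DT40 Tdp1-/- cells complemented with human TDP1, 400 cells/well, exposed to compounds plus 20 nM camptothecin for at least 48 h at 37 C; viability read as ATP content by CellTiter-Glo luminescence.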
# % is scaled to controls: 0 for no effect and ±100 for the full control effect; potency is read from the fitted curve at half-maximal effect; tags tell the direction and shape of the fitted curve.
Compound,Potency,"activity change, negative = growth inhibition"
COC(=O)c1cccc(S(=O)(=O)N(Cc2ccco2)Cc2cc3ccc(OC)cc3[nH]c2=O)c1,"inconclusive: 18.4 µM [inhibitor, partial curve]",–
O=C(Cc1ccccc1)Nc1ccc(NC(=O)c2ccc(Br)cc2)cc1,inactive,–
CC(C)(C)C1CCc2c(sc(NC(=O)c3ccccc3F)c2C(=O)N2CCCCC2)C1 (centres undefined),active: 16.4 µM,–
O=C(NCC1CCCN1S(=O)(=O)c1cccs1)c1ccc([N+](=O)[O-])cc1 (centres undefined),"inconclusive: 2.31 µM [inhibitor, single point]",–
Cc1cccc(-n2c(N)cc(=O)nc2SCC(=O)Nc2ccccc2)c1,inactive,–
Fc1ccccc1N1CCN(CC2CC3C=CC2C3)CC1 (centres undefined),"inconclusive: 20.6 µM [inhibitor, partial curve, poor fit]",–
O=C(Cc1ccc(Cl)cc1)Nc1ccc2oc(-c3ccccc3)nc2c1,inactive,–
CCOc1ccc(Nc2nc(N(C)c3ccccc3)nc(N)c2[N+](=O)[O-])cc1,inactive,–
CCOc1cccc2sc(N(CCCN(C)C)C(=O)c3ccc(S(=O)(=O)N4CCc5ccccc5C4)cc3)nc12,"inconclusive: 25.9 µM [inhibitor, single point]",–
O=C(NC1CCCCCCC1)c1cccc(Cl)c1,"inconclusive: 29.1 µM [inhibitor, single point]",–
CC(C)Oc1ccc(CNC(=O)Cc2ccc(NC(=O)N3CCSc4ncccc43)cc2)cc1,active: 16.4 µM,–
O=C(NC(=S)Nc1ccccn1)c1ccc(-c2ccccc2)cc1,active: 20.6 µM,–
O=Cc1ccc(Cl)cc1,inactive,–
CCc1cccc2c(C(=O)COC(=O)/C=C/c3ccc(O)c(OC)c3)c[nH]c12,"inconclusive: 29.1 µM [inhibitor, single point]",–
CCC(Cn1nnc2ccccc2c1=O)NC(=O)Nc1cc(Cl)ccc1OC (centres undefined),"inconclusive: 29.1 µM [inhibitor, single point]",–
Cc1ccc(-n2ncc(C(=O)NCc3cccs3)c2C2CCN(C(=O)OC(C)(C)C)CC2)cc1C,active: 16.4 µM,–
Cc1nn(Cc2ccccc2Cl)c(C)c1NC(=O)C1C2CCC(O2)C1C(=O)O (centres undefined),inactive,–
CN(/N=C\c1ccc(O)c(O)c1)c1nc(-c2ccccc2)cc(-c2ccccc2)n1,active: 0.82 µM,–
Cc1ccc(C)c(OCCOCCn2c(-c3ccc(Br)cc3)nc3ccccc3c2=O)c1C,"inconclusive: 5.8 µM [inhibitor, single point]",–
Cn1c(=O)oc2cc(S(=O)(=O)NCCC(=O)Nc3ccc(F)c(Cl)c3)ccc21,"inconclusive: 8.2 µM [inhibitor, partial curve]",–
COc1ccc(C(=O)Nc2sc(C)c(C)c2CN2CCOCC2)cc1,"inconclusive: 29.1 µM [inhibitor, single point]",–
Cc1ccc2[nH]c(CSc3nnc(NC(=O)COc4ccccc4F)s3)cc(=O)c2c1,"inconclusive: 11.6 µM [inhibitor, single point]",–
COc1ccc(Sc2nnc(Cc3ccccc3)c3ccccc23)cc1,"inconclusive: 29.1 µM [inhibitor, single point]",–

Compound,Potency,"activity change, negative = growth inhibition"
Cc1cccc(Cn2c(CNS(=O)(=O)c3ccc(Cl)s3)nc3cccnc32)c1,"inconclusive: 29.1 µM [inhibitor, single point]",–
COc1ccc(C(CNC(=O)c2cc(S(=O)(=O)N3CCN(c4ccccc4)CC3)ccc2Cl)N(C)C)cc1 (centres undefined),active: 20.6 µM,–
COc1ccc(C(=O)NCC(C)(C)N2CCOCC2)cc1S(=O)(=O)N1CCCC1,inactive,–
Cc1ccc(C2N(c3ccccc3)C(=O)N3CCCN23)cc1 (centres undefined),–,inconclusive: -31% [inhibitor]
O=C(NCC(=O)N1CCCC1)NN=Cc1ccccc1O,"inconclusive: 18.4 µM [inhibitor, single point]",–
COc1ccc(Cn2c(=S)[nH]c3cc(C(=O)N4CCN(c5ccccc5)CC4)ccc3c2=O)cc1,"inconclusive: 29.1 µM [inhibitor, single point]",–
Cn1c(NCc2cccc(Br)c2)nc2ccccc21,"inconclusive: 16.4 µM [inhibitor, single point]",–
OC(c1ccccc1)c1nc(-c2cccs2)cs1 (centres undefined),"inconclusive: 1.84 µM [inhibitor, single point]",–
CCCCOc1cccc(/C=N/NC(=O)c2csc(C)c2C)c1,"inconclusive: 29.1 µM [inhibitor, single point]",–
COc1ccc(CCc2nnc(CCC(=O)N(C)Cc3ccncc3C)o2)cc1,"inconclusive: 16.4 µM [inhibitor, partial curve]",–
CCSc1nc(COC(=O)NC)c(COC(=O)NC)n1C,active: 2.31 µM,–
CC(=O)N1CCCc2cc(S(=O)(=O)N(C)CC(=O)Nc3ccc(F)c(Cl)c3)ccc21,active: 10.3 µM,–
Cc1ccc(Nc2ncc(C(=O)NCCCN3CCN(C)CC3)c3ccccc23)cc1Cl,"inconclusive: 18.4 µM [inhibitor, single point]",–
Cc1ccc(Cl)cc1NC(=O)/C(C#N)=C/c1c(C)n(Cc2ccccc2)c2ccccc12,"inconclusive: 18.4 µM [inhibitor, partial curve, poor fit]",–
CCn1nc(C(=O)OCC(=O)Nc2nc(-c3ccc(OC)cc3)cs2)c2ccccc2c1=O,"inconclusive: 29.1 µM [inhibitor, single point]",–
Cc1ccc(C(=O)N/C(=C\c2ccc(-c3ccc([N+](=O)[O-])cc3)o2)C(=O)NC2CCS(=O)(=O)C2)cc1 (centres undefined),active: 20.6 µM,–
CCCCCC(=O)N1C[C@@H](n2cc(-c3ccc(F)cc3)nn2)[C@H](O)C[C@@H]1c1ccc(Cl)cc1,active: 14.6 µM,–
COc1cc(O)c(C=Nc2ccccc2NS(=O)(=O)c2ccc(C)cc2)c(OC)c1,"inconclusive: 16.4 µM [inhibitor, single point]",–
COc1ccc(-n2cc(CNCCCn3ccnc3)c(-c3ccccc3Cl)n2)cc1,"inconclusive: 25.9 µM [inhibitor, single point]",–
COCCNC(=O)c1nc2ccccc2s1,inactive,–
S=c1[nH]nc(Cc2noc3ccccc23)n1-c1ccccc1,"inconclusive: 29.1 µM [inhibitor, single point]",–
CC1(c2ccccc2)CC(C)(C)n2c(O)c(C3=NC(=S)NC3=O)c3cccc1c32 (centres undefined),"inconclusive: 29.1 µM [inhibitor, single point]",–
COc1ccccc1-n1cnc2c(c1=O)c1nc3ccccc3nc1n2CCc1ccccc1,active: 20.6 µM,–

Compound,Potency,"activity change, negative = growth inhibition"
Cc1cc(Oc2ccccc2F)nc(NCc2ccccc2)n1,"inconclusive: 20.6 µM [inhibitor, single point]",–
COc1ccc([C@H]2CN(CCc3ccccc3)C(=O)[C@@H]2CC(=O)Nc2ccccc2)cc1,"inconclusive: 29.1 µM [inhibitor, single point]",–
Cc1ccc(NS(=O)(=O)c2cccc(C(=O)N3CCCCCCC3)c2)cc1,"inconclusive: 18.4 µM [inhibitor, single point]",–
Cc1ccc(NC(=O)c2ccc3nc(Cc4ccccc4)oc3c2)cc1F,–,inconclusive: -33.1% [inhibitor]
COc1ccc(/C=C(\NC(=O)c2ccccc2)C(=O)OC[C@@H]2CCC[N+]3(C)CCCCC23)cc1OC (some centres undefined),inactive,–
CSc1ccccc1NC(=O)CN1CCN(S(=O)(=O)c2ccccc2[N+](=O)[O-])CC1,inactive,–
C[C@H]1CN([C@@H](C)CO)C(=O)c2cc(-c3ccccc3F)cnc2O[C@H]1CN(C)C(=O)C1CCOCC1,"inconclusive: 29.1 µM [inhibitor, single point]",–
O=C(CNCc1ccc(Cl)cc1)Nc1ccc2c(c1)OCCO2,"inconclusive: 29.1 µM [inhibitor, single point]",–
Cc1cccc(C(=O)Nc2ccc(S(=O)(=O)N3CCOCC3)cc2)c1[N+](=O)[O-],inactive,–
Cc1csc2nc(-c3cccc(NC(=O)c4cccc(F)c4)c3)cn12,active: 18.4 µM,–
COc1ccc(-c2ccc(=O)n(Cc3c(F)cccc3Cl)n2)cc1,active: 14.6 µM,–
CC(C)Oc1ccc(CCc2n[nH]c(=S)n2Cc2ccccc2)cc1,active: 25.9 µM,–
CC(NS(=O)(=O)c1cc2c3c(c1)CCC(=O)N3CCC2)c1ccccc1 (centres undefined),inactive,–
Cc1cccc(-c2noc(CN(C(=O)c3ccc(C)c(C)c3)C(C)C)n2)c1,active: 5.17 µM,–
C/C(=N\NC(=O)c1cccc(S(=O)(=O)N2CCCC2)c1)c1ccc(OCC(=O)N(C)C)cc1,inactive,–
Cc1cc(=O)[nH]c(N2CCCCC2)n1,inactive,–
CCOC(=O)c1c(C)[nH]c(C)c1C(=O)COC(=O)c1cc2ccccc2cc1O,"inconclusive: 29.1 µM [inhibitor, single point]",–
CCC(CO)Nc1nc(CN2CCCCC2)nc2scc(-c3ccccc3)c12 (centres undefined),"inconclusive: 20.6 µM [inhibitor, single point]",–
COc1ccc(NC(=O)N(C)C[C@H]2Oc3ccc(NC(=O)CCN4CCOCC4)cc3C(=O)N([C@@H](C)CO)C[C@H]2C)cc1,inactive,–
COCCn1c(=NC(=O)CCS(=O)(=O)c2ccccc2)sc2c(OC)ccc(OC)c21,"inconclusive: 20.6 µM [inhibitor, single point]",–
CCOc1ccccc1NC(=O)C1CCCN(S(=O)(=O)c2ccc(OC)c(C)c2)C1 (centres undefined),"inconclusive: 29.1 µM [inhibitor, single point]",–
CC(NC(=O)C12CC3CC(CC(C3)C1)C2)C(=O)NN=Cc1ccc([N+](=O)[O-])o1 (centres undefined),"inconclusive: 18.4 µM [inhibitor, single point]",–
CCOc1ccc(CCNC(=O)C2=C(C)C(=O)OC23CCC(C)CC3)cc1OCC (centres undefined),"inconclusive: 29.1 µM [inhibitor, single point] and inconclusive: 23.1 µM [inhibitor, single point]",–
